# Some of the results follow.
# How the values were obtained:
# [1] = system: HSkMC (human skeletal muscle cells); assay: cytotoxicity call (relative viability < 0.9); conditions: 10 µM
# [2] = system: HepG2; assay: cytotoxicity call (relative viability < 0.9); conditions: 10 µM
# [3] = system: S. aureus RN4220; assay: growth inhibition call (relative growth <= 0.2); conditions: 50 µM
SMILES,cytotoxicity call [1],cytotoxicity call [2],growth inhibition call [3]
COc1ccc2c3c(n(c2c1)C)[C@H](CO)N(C[C@]13CCN(CC1)C(=O)c1ccccc1)C(=O)Nc1ccccc1F,active,inactive,inactive
C[C@@H]1CCCCO[C@@H](CN(C)C(=O)Cc2ccccc2)[C@H](C)CN([C@@H](C)CO)C(=O)c2cc(NC(=O)c3ccccc3)ccc2O1,inactive,inactive,inactive
C[C@H](CO)N1C[C@H](C)[C@@H](CN(C)Cc2ccc(C(=O)Nc3ccccc3N)cc2)Oc2ccc(NS(C)(=O)=O)cc2C1=O,inactive,inactive,inactive
O=c1ccn([C@@H]2O[C@H](COP(=O)(O)OP(=O)(O)OP(=O)(O)O)[C@@H](O)[C@H]2O)c(=O)[nH]1,inactive,inactive,inactive
O=C(O)CCCCC(=O)O,inactive,inactive,inactive
C[C@@H]1CCCCO[C@@H](CN(C)S(=O)(=O)c2cccs2)[C@H](C)CN([C@H](C)CO)C(=O)c2cc(NC(=O)Nc3ccccc3)ccc2O1,inactive,active,inactive
CC1c2cccc(O)c2C(=O)C2=C(O)C3(O)C(=O)C(C(N)=O)=C(O)C(N(C)C)C3C(O)C21.Cl (configuration not stated),inactive,inactive,inactive
CC(=O)N1[C@@H]2c3ccc(-c4ccccc4)c(=O)n3C[C@H]1[C@H](CO)[C@H]2C(=O)N1CCN(C)CC1,inactive,inactive,inactive
C[C@@H]1CN([C@@H](C)CO)C(=O)c2cc(NC(=O)CCCN(C)C)ccc2O[C@@H]1CN(C)S(=O)(=O)c1ccc(Cl)cc1,inactive,inactive,inactive
C[C@@H]1CCCCO[C@@H](CN(C)CC2CCCCC2)[C@H](C)CN([C@H](C)CO)C(=O)c2cc(NS(=O)(=O)c3ccc(Cl)cc3)ccc2O1,inactive,active,inactive
CC(C)N1C[C@H](C)[C@@H](CN(C)Cc2ccccc2Cl)Oc2c(NC(=O)c3ccncc3)cccc2C1=O,inactive,inactive,inactive
C[C@@H]1CCCCO[C@@H](CN(C)S(=O)(=O)c2ccc(Cl)cc2)[C@H](C)CN([C@H](C)CO)C(=O)c2cc(NS(=O)(=O)c3ccc(Cl)cc3)ccc2O1,inactive,active,inactive
C[C@H](CO)N1C[C@H](C)[C@@H](CN(C)C(=O)Nc2cccc3ccccc23)OCCCC[C@H](C)Oc2ccc(NS(C)(=O)=O)cc2C1=O,inactive,inactive,inactive
Cc1noc(C)c1NC(=O)N(C)C[C@@H]1Oc2c(NC(=O)c3ccncc3)cccc2C(=O)N([C@@H](C)CO)C[C@@H]1C,inactive,inactive,inactive
C[C@@H]1CN([C@H](C)CO)C(=O)c2cc(NC(=O)NC3CCCCC3)ccc2O[C@@H](C)CCCCO[C@H]1CN(C)S(=O)(=O)c1ccccc1,inactive,inactive,inactive
COCCOC(=O)N1C(=O)[C@@]2(c3cc(C#CCNC(N)=O)ccc31)[C@H](C(N)=O)[C@H]1C(=O)O[C@H](c3ccccc3)[C@H](c3ccccc3)N1[C@@H]2c1ccccc1OCCO,inactive,inactive,inactive
COc1cc(C(=O)O)ccc1NC(=O)[C@@H]1N[C@@H](CC(C)(C)C)[C@](C#N)(c2ccc(Cl)cc2F)[C@H]1c1cccc(Cl)c1F,active,inactive,inactive
C[C@@H]1CCCCO[C@@H](CN(C)C(=O)Nc2ccccc2)[C@H](C)CN([C@H](C)CO)C(=O)c2cc(NC(=O)Nc3ccc(F)cc3)ccc2O1,inactive,inactive,inactive
C[C@@H]1CCCCO[C@H](CN(C)S(=O)(=O)c2cccs2)[C@@H](C)CN([C@@H](C)CO)C(=O)c2cc(NS(=O)(=O)c3ccc(Cl)cc3)ccc2O1,inactive,inactive,inactive
C[C@@H]1CCCCO[C@@H](CN(C)C(=O)Nc2ccccc2)[C@@H](C)CN([C@H](C)CO)C(=O)c2cc(NC(=O)Nc3ccc(C(F)(F)F)cc3)ccc2O1,inactive,active,inactive
N#Cc1ccc[nH]c1=O,inactive,inactive,inactive
C[C@H](CO)N1C[C@H](C)[C@H](CN(C)S(C)(=O)=O)Oc2ncc(C#Cc3ccc(C(F)(F)F)cc3)cc2C1=O,inactive,inactive,inactive
COc1ccc(S(=O)(=O)N(C)C[C@H]2Oc3ccc(NS(=O)(=O)c4ccc(F)cc4)cc3CC(=O)N([C@H](C)CO)C[C@H]2C)cc1,inactive,inactive,inactive
C[C@H]1CN([C@@H](C)CO)C(=O)Cc2cc(N(C)C)ccc2O[C@H]1CN(C)C(=O)Nc1ccc2c(c1)OCO2,inactive,inactive,inactive

# From the antibiotic and cytotoxicity screens of Wong et al. (2023)
